Test results published in the BET-seq Pho4 binding data (Le et al. 2018).
The other results are listed elsewhere or left out. The energies were worked out here from pooled read counts, against the library average; single values are noisy.

The sequences below were run against T1, Pho4 (S. cerevisiae) (UniProt P07270) (assay: relative binding free energy (BET-seq); higher = weaker binding). Conditions: reference: library average.
T1 sequence: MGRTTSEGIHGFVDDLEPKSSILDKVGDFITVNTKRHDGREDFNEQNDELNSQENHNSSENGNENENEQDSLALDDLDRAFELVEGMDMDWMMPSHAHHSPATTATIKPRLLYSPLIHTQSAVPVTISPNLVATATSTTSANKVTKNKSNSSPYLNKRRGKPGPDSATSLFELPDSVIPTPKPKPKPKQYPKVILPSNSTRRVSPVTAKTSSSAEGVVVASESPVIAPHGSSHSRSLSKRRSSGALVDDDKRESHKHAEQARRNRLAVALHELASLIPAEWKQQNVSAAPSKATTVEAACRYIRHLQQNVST

Sequence	relative binding free energy
TGATTCACGTGATATA	0.17 kcal/mol
GATTCCACGTGAGGGT	0.39 kcal/mol
CAGGACACGTGCGGGT	-0.03 kcal/mol
TTTTGCACGTGACTGA	0.16 kcal/mol
GGTTGCACGTGGTTGA	0.11 kcal/mol
TTTAACACGTGATTCT	0.24 kcal/mol
GTGGTCACGTGGGGGC	0.07 kcal/mol
AAAGGCACGTGGTTTA	-0.21 kcal/mol
CGTGCCACGTGGTTGT	-0.27 kcal/mol
TGGCTCACGTGTTATT	0.14 kcal/mol
AGTCACACGTGTGGGC	0.18 kcal/mol
TCTTGCACGTGTAGAG	0.12 kcal/mol
AAGTTCACGTGTTGTC	0.26 kcal/mol
GCGAACACGTGGAGTG	0.18 kcal/mol
GGTTACACGTGGTTGT	0.19 kcal/mol
TTTGCCACGTGTAATA	0.12 kcal/mol
GTGGCCACGTGGTGAT	-0.06 kcal/mol
CTTTGCACGTGGGCAG	-0.14 kcal/mol
CTGTGCACGTGTTTTA	-0.2 kcal/mol
TTTGGCACGTGAGGGA	0.11 kcal/mol
GATGTCACGTGTTTCG	0.09 kcal/mol

Sequence	relative binding free energy
GAATGCACGTGAGGGG	0.15 kcal/mol
ATTGCCACGTGTATAG	-0.07 kcal/mol
TTGTCCACGTGTTGAG	0.06 kcal/mol
TATGGCACGTGTCTTG	-0.14 kcal/mol
GATGTCACGTGGAGTA	0.15 kcal/mol
TAAGTCACGTGAGTGC	0.11 kcal/mol
GGTCGCACGTGGTAGA	-0.21 kcal/mol
ATTTCCACGTGTGCTT	0.18 kcal/mol
TACTTCACGTGAAAGT	0.5 kcal/mol
TTTAGCACGTGGACTT	-0.04 kcal/mol
GGAAGCACGTGATGTT	0.02 kcal/mol
GTGCACACGTGTTTAG	0.03 kcal/mol
CGCTTCACGTGGGTAG	0.1 kcal/mol
TAGAACACGTGGGGCT	-0.15 kcal/mol
TGGCGCACGTGTTTTT	-0.08 kcal/mol
AGGGACACGTGTCGGC	0.05 kcal/mol
AATGGCACGTGTTGGA	-0.06 kcal/mol
TCGTGCACGTGGAGTT	-0.05 kcal/mol
CGATTCACGTGATGTG	0.33 kcal/mol
TATGGCACGTGTTCTG	-0.05 kcal/mol
GTTCTCACGTGGGGGC	0.12 kcal/mol

Sequence	relative binding free energy
TTGTGCACGTGTGTCG	-0.04 kcal/mol
TTCGACACGTGTTAAT	0.09 kcal/mol
TTGCTCACGTGCGTGA	0.15 kcal/mol
TAGTACACGTGTGGGA	0.19 kcal/mol
GGCTTCACGTGAGGGG	0.41 kcal/mol
GGCTTCACGTGAGTGG	0.49 kcal/mol
TCAAGCACGTGTGGTG	-0.1 kcal/mol
ATATACACGTGTCTGG	-0.01 kcal/mol
GGCTACACGTGGTTTT	0.12 kcal/mol
GTAGTCACGTGCTGTT	-0.01 kcal/mol
TCGTTCACGTGTGCAT	0.43 kcal/mol
TTTATCACGTGGGATT	0.13 kcal/mol
TTTATCACGTGATGTG	0.18 kcal/mol
GAAGACACGTGGTGTA	-0.07 kcal/mol
AATGGCACGTGTATTG	-0.16 kcal/mol
TTAGGCACGTGGGTGA	-0.29 kcal/mol
TGCGGCACGTGGGAGT	-0.12 kcal/mol
ATACGCACGTGTGGAT	-0.04 kcal/mol
GCTTGCACGTGTTTAT	0.1 kcal/mol
TATAGCACGTGTAATG	-0.04 kcal/mol
GGTTTCACGTGTGTTA	0.4 kcal/mol
